Test results: the BET-seq Pho4 binding data (Le et al. 2018)
The list shows a part of the results. Values were computed here from the reads of four pooled replicates and scatter widely.

Molecular target: T1, Pho4 (S. cerevisiae) (UniProt P07270)
T1 sequence: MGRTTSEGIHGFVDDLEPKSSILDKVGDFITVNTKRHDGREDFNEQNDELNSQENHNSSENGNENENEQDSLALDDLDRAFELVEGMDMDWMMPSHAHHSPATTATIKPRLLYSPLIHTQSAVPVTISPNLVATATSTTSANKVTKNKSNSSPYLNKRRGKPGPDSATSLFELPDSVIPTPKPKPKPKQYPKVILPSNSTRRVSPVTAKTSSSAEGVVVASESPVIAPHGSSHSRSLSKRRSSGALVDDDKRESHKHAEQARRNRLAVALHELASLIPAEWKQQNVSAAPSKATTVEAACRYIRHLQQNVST
Assay: relative binding free energy (BET-seq); higher = weaker binding
Settings: reference: library average

Sequence	relative binding free energy [kcal/mol]
GTTGTCACGTGGTTGG	0.19
AGGCGCACGTGTTGTA	-0.11
TAGGGCACGTGTTCGA	-0.21
TGGGTCACGTGTCTGG	0.04
TTAATCACGTGATGAG	0.02
TTAGTCACGTGTTACA	0.15
AATAGCACGTGTTTGA	-0.17
GAGAGCACGTGGTTAG	-0.15
TGGTGCACGTGGGTGT	-0.04
TAAAGCACGTGATGAA	0.22
GTGCACACGTGTGCGT	0.09
TAGGTCACGTGTGATT	0.24
GCAGTCACGTGTTTTT	0.14
TCTAGCACGTGGTGGT	-0.09
AGGAGCACGTGGTGGC	-0.14
GTGTTCACGTGTGTTT	0.35
TGGGTCACGTGAGCGA	0.27
GTAGGCACGTGTTAAT	0.09
AAGGTCACGTGTGTGG	0.15
AGTGGCACGTGGGGTT	-0.22
TTTTCCACGTGTAAAT	0.26
TTAAGCACGTGAAAGT	0.12
TGCTTCACGTGTGTGT	0.32
TTAGACACGTGGCTTA	-0.03
TGAGGCACGTGTGGCT	-0.09
GCTTTCACGTGAATGG	0.52

Sequence	relative binding free energy [kcal/mol]
TGGGGCACGTGTTCAG	0
TATGACACGTGCGTTT	0.08
TGGGTCACGTGTCAAG	0.22
GGGATCACGTGTCGTT	0.2
TATCGCACGTGGTGTC	-0.14
AGTTGCACGTGGCGGA	0
TTATCCACGTGATGGG	0.08
ATTTACACGTGGAGAG	0.02
TATCACACGTGTGAGG	0.23
TTATTCACGTGGGGCT	0.31
AAAAGCACGTGCTGGT	-0.03
AGGGTCACGTGGTAGT	0.12
TTTTTCACGTGGTTAG	0.33
AAGTTCACGTGGGATA	0.19
AGGAGCACGTGTAGTT	0
AGGGTCACGTGGCTTG	0.08
TAGGGCACGTGCAGAT	-0.15
GTATGCACGTGATTCG	0.15
TAGGTCACGTGTTTCT	0.08
GAGGTCACGTGTCGGA	0.4
CATGTCACGTGTTTGC	0.1
TTTTACACGTGTGCAT	0.09
TATACCACGTGGGGTT	-0.31
CTTATCACGTGTGGTA	0.14
TTGGACACGTGATGAG	0.18
GGCAACACGTGTGTGG	0.02

Sequence	relative binding free energy [kcal/mol]
CAGGACACGTGTTTGT	-0.01
CAATGCACGTGGTGGT	-0.09
AGGGTCACGTGGTGGG	0.07
TTTAGCACGTGTATCG	-0.07
AAGTTCACGTGTGAGT	0.41
TAATGCACGTGAAGGT	0.13
AGCTGCACGTGCTGGG	-0.15
GGAGACACGTGTTTTG	0.1
TTAGTCACGTGCATGG	0
CGTGGCACGTGATTAT	-0.03
CTATTCACGTGGTAGG	0.26
GGTCGCACGTGCTGTG	-0.11
AGGACCACGTGGTTGG	-0.05
AGAGACACGTGGGGAG	-0.18
TGGTTCACGTGCATTG	0.31
TAGTTCACGTGGGAGT	0.24
GGCTGCACGTGTTGGG	-0.03
AGGGTCACGTGTCGCG	0.17
AGTAGCACGTGTTGGA	-0.04
CGAGACACGTGAGTGG	0.06
ATGGGCACGTGGTATG	-0.23
AGTGGCACGTGCGGGA	-0.08
GGATGCACGTGGGTCG	-0.09
ATGTGCACGTGTTTAA	-0.07
GATAACACGTGTAAGT	0.23
ATCTGCACGTGTGTTA	-0.1

Sequence	relative binding free energy [kcal/mol]
AGTGTCACGTGGGTAG	-0.04
TAAAACACGTGGCGGG	0.15
GTTCGCACGTGGCGTT	-0.11
GTGTACACGTGCCGGT	0.07
AAGCGCACGTGGATGT	0
TTGCGCACGTGAGGGT	0.23
TTTTTCACGTGTTAAA	0.35
CGTCTCACGTGGAGGG	0.02
CGTTGCACGTGGTTCA	-0.01
CGAGTCACGTGTAATG	0.14
GGGTGCACGTGGTGAC	-0.18
TATGGCACGTGGACTG	-0.17
TTACGCACGTGGGTGT	-0.26
GGGCTCACGTGGAGGT	0.09
GATGACACGTGGAGTT	0.15
AAGGACACGTGTATGG	0
GAGTTCACGTGAAGTT	0.37
ATTGCCACGTGGGCGT	-0.25
ATGTCCACGTGGTAGG	-0.17
ATGTGCACGTGTAAGT	0.09
GGCGTCACGTGCGTTG	0.19
TGTATCACGTGTTTCT	0.14
TGGGCCACGTGATTAG	0.08
GGGGACACGTGCAGGC	0.03
GTTAACACGTGTGAAA	0.29
TGGTTCACGTGGCTTA	0.1

Sequence	relative binding free energy [kcal/mol]
CGTTGCACGTGCGTTT	-0.16
ATAACCACGTGTAGGT	-0.01
CTAAGCACGTGGGAGG	-0.22
TGGGGCACGTGCTTTG	-0.19
GGGGGCACGTGCCTAT	-0.03
TACGTCACGTGATTAG	0.11
GTTATCACGTGCAAGT	0.16
TCATACACGTGTTTGG	-0.06
TTGTTCACGTGTGACG	0.22
TAGGACACGTGAATTG	0.3
TATTGCACGTGGTGTG	-0.13
GGCGGCACGTGAGTTT	0.23
TCAGACACGTGTAGGT	0.02
CGGCTCACGTGAGTGG	0.3
TGATACACGTGTATGG	-0.02
TATTTCACGTGGTTTT	0.27
CTTTACACGTGGTTCG	0.03
GGCGTCACGTGTGTAA	0.27
GTCGTCACGTGGAGGT	0
GTAAACACGTGTTAGA	0.18
ATTTTCACGTGAAACG	0.37
GCGTACACGTGATATG	0.27
TGGTGCACGTGTAGTC	0.09
TAGTACACGTGATTTA	0.18
TGTGACACGTGTGTCA	0.04
TCGTTCACGTGGTTTC	0.35

Sequence	relative binding free energy [kcal/mol]
GATTACACGTGACGGT	0.36
TTGGTCACGTGTTTAA	0.08
ATGGCCACGTGCGGGG	-0.11
AATGTCACGTGTTGCT	-0.06
AAGGGCACGTGTAGTC	-0.09
GTTGTCACGTGTGAGT	0.28
TTATACACGTGGGGAA	0
GAGATCACGTGTGGGG	0.24
TGGACCACGTGGGGGC	-0.27
TAGGCCACGTGGTCGG	-0.23
AGTGTCACGTGTACCG	0.05
TTCAGCACGTGGCGTG	-0.18
AACGTCACGTGGGGGC	-0.08
GGCTACACGTGTATGT	0.27
GTTGACACGTGTTGTA	0.05
GGTTTCACGTGAGATA	0.54
TTGTTCACGTGTTTGC	0.27
GTATACACGTGGCTGG	0
GGTCTCACGTGGGCGA	0.13
AATGGCACGTGCATGG	-0.24
TCATTCACGTGTTAAT	0.24
TGTGACACGTGGGATC	-0.11
GGATGCACGTGTCTTG	-0.02
GTGCGCACGTGTGGGA	-0.19
AGGGACACGTGTGTAA	-0.01
AGGGTCACGTGTATTT	0.27

Sequence	relative binding free energy [kcal/mol]
TAGTGCACGTGGCAGT	-0.08
TTGTACACGTGTGTCT	0.07
TTGAGCACGTGCTTAG	-0.13
TGACTCACGTGAGTAG	0.38
AATTTCACGTGGCGGA	0.13
GATTTCACGTGTAGGG	0.28
TATTCCACGTGGCGGT	0.11
ATGGACACGTGAGGCT	0.16
AAGGGCACGTGTACTG	-0.17
CATGTCACGTGGGTCG	-0.13
AATGTCACGTGATTTC	0.23
CTAGTCACGTGGGGGG	-0.01
GATTTCACGTGTTTGA	0.29
AATTTCACGTGTGTAG	0.27
CGGTTCACGTGTTTTG	0.3
AGGTGCACGTGAATCG	0.39
TGGTCCACGTGAGTGA	0.19
GGGTTCACGTGGCCTG	0.17
TGTGGCACGTGTACAT	-0.11
GACGGCACGTGAGAGG	0.27
GGTCGCACGTGCGCGG	-0.04
TGTTGCACGTGGCCTG	-0.24
CAAGTCACGTGGTGTA	-0.07
GCGATCACGTGGTGGT	0.11
GTGTACACGTGGTTTC	0.14
AGTGGCACGTGTCGTC	-0.08

Sequence	relative binding free energy [kcal/mol]
AGAGGCACGTGATCGT	-0.06
GATGGCACGTGGGGCC	-0.29
TGCTGCACGTGAGGAT	0.32
GATATCACGTGTGAGT	0.36
AGTCACACGTGTGATT	0.06
GTGGTCACGTGGTCTA	0
CATATCACGTGTGGGA	0.16
ATGGACACGTGAGGGC	0.27
TCTGCCACGTGTGTTG	-0.08
TGAGACACGTGATGCG	0.17
AGGGACACGTGTTGAA	-0.1
GGCTGCACGTGGAGTT	0.15
TATTACACGTGGGTGA	-0.06
GCGTGCACGTGGGCGA	-0.19
CTAGGCACGTGGGTGA	-0.27
AAGTACACGTGTGATT	0
ATTGACACGTGAATTG	0.23
GCGATCACGTGTGGGG	0.24
AATATCACGTGGTCGG	0.17
ATTGGCACGTGAGTTC	0.09
TTTTACACGTGCTAGG	0.09
GGGATCACGTGCCTGG	0.14
TGATGCACGTGGATAT	-0.07
GTGAGCACGTGAGGTA	0.27
TTACGCACGTGTTTTA	-0.19
AGGTCCACGTGTGCGG	0.04

Sequence	relative binding free energy [kcal/mol]
ATTCTCACGTGGATGT	0.15
TGTTTCACGTGTCTTG	0.16
AAGGTCACGTGGCTGG	-0.05
CAGGACACGTGGGTGG	-0.08
TGTTCCACGTGGGGTT	-0.07
TAATGCACGTGGTTTA	-0.11
CTGTGCACGTGTATGA	-0.1
GGAGGCACGTGGAGAT	0.05
AGCTACACGTGGGGTG	-0.03
TTGGTCACGTGGCTCA	-0.04
GGCGTCACGTGAGCGT	0.3
GAGGACACGTGCGGTT	-0.01
TGGTTCACGTGGTGGC	0.23
TTGTTCACGTGTTCGT	0.23
AAGGTCACGTGTGGTC	0.16
AAGCGCACGTGTGATG	-0.03
TTCTTCACGTGAGGAG	0.32
GGTATCACGTGGCCGA	0.32
AAGGGCACGTGCTGTA	-0.06
TGCGTCACGTGCGTGT	0.02
GTTTTCACGTGTTTTC	0.3
GCAGTCACGTGTGATG	0.14
